Measurements published in PubChem BioAssay (NCATS).
The shares of active, inactive and inconclusive entries below differ from those in the screen. For some of these results: Potencies of inconclusive entries are left out as doubtful fits. Activity calls are given as the source filed them. The call rests on the fitted dose curve; in most records, active means well fitted curve in the direction sought with a large enough effect; inconclusive means small, poorly fitted or top-dose-only effect, or another doubt; inactive means no such curve, though single readings can be large; an effect the other way counts as inactive or inconclusive.

Key:
[1] = tested on: Zika virus NS2B-NS3 protease (linked construct); test: Primary screen NINDS Rhodamine qHTS for Zika virus inhibitors (AID 1347160); further: nearly all actives have a fitted effect of over 55% in size
How it was run: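 Each compound, titrated, sat 15 min with 25 nM linked protease before 1.5 microM Rhodamine110 substrate went in. Fluorescence gain over the next 15 min, in pH 8.0 Tris with Tween 20, gave Hill-fitted curves.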

PA-1 = test: Primary qHTS to identify gynecologic anti-cancer compounds using libraries of approved drugs and bioactive compounds (AID 1345084); settings: Gynecologic cancer cell panel viability, ATPlite luminescence, 48 h; series mostly up to 57.5 µM; further: nearly all actives have a fitted effect of over 55% in size; further: potency means the concentration at half of the fitted maximal effect
How it was run: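 Measured: luminescence after ATPlite addition (15 min, RT). Exposure: 48 h, 37 C, 5% CO2.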

[2] = P-glycoprotein substrates identified in KB-3-1 adenocarcinoma cell line, qHTS therapeutic library screen (AID 1346986); further: nearly all actives have a fitted effect of over 60% in size
How it was run: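 72 h cell-killing screen, 500 cells/well, CellTiter-Glo luminescence. Paired lines KB-3-1/KB-8-5-11; P-gp dependence checked by tariquidar co-treatment and HEK-293 MDR-19 versus empty-vector cells.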

[3] = Primary qHTS for inhibitors of nuclear receptor binding SET domain protein 2 (NSD2) in an isogenic RCH-ACV NSD2 p.E1099K mutant (9B) (AID 1645876); settings: activity change, negative = viability loss: at 44.9 µM (top of the series) unless noted; further: nearly all actives have a fitted effect of over 70% in size
[4] = Primary qHTS for inhibitors of nuclear receptor binding SET domain protein 2 (NSD2) in an RCH-ACV wild type WT cells (2C) (AID 1645877); settings: activity change, negative = cell killing: at 44.9 µM (top of the series) unless noted; further: nearly all actives have a fitted effect of over 70% in size
[5] = Primary fluorescence-based thiol-reactive (MSTI) qHTS assay for identification of artifact compounds. (AID 1845221);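 further: potency means the concentration at half of the fitted maximal effect; thiol-reactive compounds lower the probe fluorescence signal; nearly all actives have a fitted effect of over 65% in size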
How it was run: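 Reactivity toward the thiol probe MSTI (4 uM) is scored by fluorescence at Ex/Em 525/598 nm after 1 h at room temperature. Acetyl-MSTI and MSTI define the activity scale.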
Tags describe the fitted curve by direction and shape.

SMILES	Potency [1]	Potency (PA-1)	Potency [2]	Potency [3]	Potency [4]	Potency [5]
COC(=O)C(CC1(O)c2ccccc2N2C(=O)C(CC(C)C)NC21)n1cnc2ccccc2c1=O (configuration not stated)	inactive	inactive				
COc1ccc2c(c1)OC[C@]1(O)c3cc4c(cc3O[C@H]21)OCO4		inconclusive [rising, partial curve, poor fit]	inactive	inactive	inactive	inconclusive [inhibitor, partial curve]
